B1: traf2_out_5_63_2348 (protein)
chain: SEHAELTALARRADRLARAILEAAEAGKEEEAEKLIEEAVEDPELARLVIGILKGEAKYYELLGDQPEKAKLAKELAKELEKRLEEREAARAAAAAAAAA
B2: traf2_out_13_95_1036 (protein)
chain: SAELAKKINEIADKMLDEALALLDAAKKAHADNPEAVAVLDEAKRAAVTQGISEAIHILEQAKAANPEHAADFAALIAELKALREKAGKEVAKLIKEEKE
B3: traf2_out_17_162_1522 (protein)
chain: SALEERLAELEKRLEELEKKLKELEKKLENLEKMSKEELTDLLVEASEAKREALELAEELRRLRPLIGEERAGELIERAEEIAEKLQKIANKIYKELEKK
B4: traf2_out_13_95_1166 (protein)
chain: EEEKTKKEREIASEAFDKREEVAEDFRDRVLALIDDPEAAELMDEVVRNMNIYTLRHAGAELQARYPEKAAEIAALTDEAEARMREIDKETTKKLNEIEK
B5: traf2_out_18_54_1950 (protein)
chain: ARLEALRAEARAVIDEWTAAVLALVADNPEIQAMVEEARARVLAALDTEGLWAAVTTFRRLSAEIIAAIEDPEVADAVGDLAADARNRLAKLALEAERAE
B6: traf2_out_17_162_1550 (protein)
chain: AELERRLEELERELEEIEREVERLESLLPKLPEMSKEELTDLLVEASEVRRRALELAEEIRELAAEIGEERARELAERARELAERLQRIANKIYEELLKK
B7: traf2_out_11_183_893 (protein)
chain: KQEKINEATNEVVDRHERMRAEALALLRSLSARYADTDPELAAFYAEAAALIEAGSNVRVVLEEVAESLPPGPDKEEVEALLRRVREEQRRMGKILEEAE
B8: traf2_out_11_169_848 (protein)
chain: EEEEKNRKIIDKALELNDKAKEELRAHALALAKKAGLDTAAVEAIFEANKGKSLSAVAAALIAWFKAQGKDAEAAAVEAKYEELKEKINKEMTKFLKELE
B9: traf2_out_13_95_1212 (protein)
chain: EEEKTRKLREVTNEIADELIDFVEATADAIEAATGRADYRDEILATLRRNGVRAAVALIRRYAEADPEHAAVYRAAAAEAEAKIREAGKRFAEAEKEIEE
B10: traf2_out_11_169_883 (protein)
chain: EEKEKNRKFNDFALELNDEAKEKLKEFALKLAKELGLNEEEVKAIFEENKNKSLSYVASKLIEYFKEKGKEEAAKKVLEKYEELKDEINKKGTEKLKELE
B11: traf2_out_15_17_1306 (protein)
chain: EAERERNRRLAEAMNAVLDEAEARLAELEAEALKLAKEKGVEERVLKLLEESRDYSVRTRVLLLARLAKEEGWEELAKRAEELAEEIGRRASEAARAVEE
B12: traf2_out_16_177_1452 (protein)
chain: ELDKVMDRLVILSNLRRAALLAVEGKGDEYQEHLKRAREEAEEAGDEEGLKLAERIEELIAKNTPEAKEELKKLAEELQKEAQKLAEEAEKLIKERAEKE
B13: traf2_out_15_48_1352 (protein)
chain: STEKLRKTAREINDKIDETLDAVAERLRALLPELAPELQPLAEAAIETATRRTSINETIALLAEAAAKADPETQAKLTALRDELEATKKEASKLMNETLK
B14: traf2_out_14_149_1235 (protein)
chain: SHMAELFKAAAEMNRIAAEALEKALELLDKGEVEAAKKLLEETIKKLEEYGKEHGITTSIVFELEHILKLLDTDVEAAKEAAKRALERARSAAEAAESLA
B15: traf2_out_14_149_1237 (protein)
chain: SPEAKLFAAAAELNEKAAKALKEALKLIDEGKVEEAKKLLEKTIKELEEYGKKHGVTVSSVFELEHILKLLDEDVEAAKAAAEEAAKRAEDAADAARSLA
B16: traf2_out_11_155_732 (protein)
chain: EALRQAQREINDFALELGDELVEYVRELIERVEEEDPEAAEKLREVFEKHLKFSARSAARAVADLLRELGYEEEAEELEKRIEEANKKASEHVNEVEAKL
B17: traf2_out_9_108_2599 (protein)
chain: MTPLELADAAVDRVIGTVEEKVPEVKFSEETKANIRRTLHRVVELSEITNETTITSYVAAEVLLAARDLPKETLEKIAEVLIELDPSVKSTVERTLSLLK
B18: traf2_out_13_95_1101 (protein)
chain: SLELAKKIMEIADKMLEEAEKILEELLKKAKKAGVAEEEIQEALHLARTHSIREAIHKLKELAKEYPELKEELEEAIKKLEELIREAGKKVAELIKKEEE
B19: traf2_out_11_169_892 (protein)
chain: AEAEKNRKIIDKALELNDKAVEKLKEFALKLAKEAGLDVEEVKAIFEENKGKSLSAVAAALIEYFKSKGKEEEAEAVLKKHEELKEEINKEMTAFIKSLE
B20: traf2_out_11_155_691 (protein)
chain: SHDQELNNELVDKTTAIADKAKAEADKIAAAAAAAHPEHAERIAAAAAEAKKFSHRTYLGLMAALFRELGLEEEAARVEELLAKAQKEMNAVVKEIEAKK
B21: traf2_out_8_15_2553 (protein)
chain: SIEEAAQKDIERLRALSDGDEESLINTLMGTAKAELRLAKIYMEEGKKEEALNTLQAAEIYANAALELAKKINSPDLEKITKEVEKINKEIEELKKKIEA
B22: traf2_out_9_108_2593 (protein)
chain: MTKEEILEEKFKKVEELVKEFIEEVDLTEEQKEELEEAIKNAKELYEKGLKETAIILLAIDLARVASKVGEEAVKELLEKLKKIDERAYSAAERMVKLLK
B23: traf2_out_13_95_1041 (protein)
chain: SAELAEKIMAIADDMLDRALALLDAAAAEAADDPEARAVLEEARRLAETRGISEAIHLLREAAAAHPEHRELFERTIAELEAIRREAGREVAKLIKEEKE
B24: traf2_out_1_27_1022 (protein)
chain: SDEEFTRLIRETDRKIAEVDLEEQKKVVKEALKEAAKWGLGDARMLARTLVASQNDEERQEAIKEASLEAFKELGAPEEVIEELERVFNSIIERKKKVLA
B25: traf2_out_18_64_1956 (protein)
chain: SPVREEVDRLVDEMDARRRARLRLAERLTAKAAADPAYQPLLDLFHANVNSIGLAGAREMLALLDAGAPVEELEAVLRRHLGEGDELQRRLAEALEKLEA
B26: traf2_out_11_155_762 (protein)
chain: EEKLKIYREFNDKAMEIADELEKKIEETIKKLEEEDPAVAAEVRALLEKHRDASARSKALLAARKLKEAGYEELAKELLEKVKEAQEKMNKIANEANKKI
B27: traf2_out_18_117_1785 (protein)
chain: MKREEVIKRLEEIAEKVGRKASELGKLMLEKWEELSPEEKSEIMDILADLTEVRREALELIEKIKAGEIPLEEAEKRAREIEKRAEEALKKAEEKIKEIE
B28: traf2_out_20_3_2117 (protein)
chain: KELEEELERELERALRLLEEAAKLANPEDAKVLRELAKRLEASRELSPVDRLVVVSEIRREVRALRQRALAAGDEELAEVLERAAEALNRAANLLMKIIE
B29: traf2_out_13_95_1087 (protein)
chain: SAETNAKINEIADKMMEKIEAILDKLSEEVADDPELKAEVEAAKELAITRGVNEAIHKLRELSKAHPEYKEKLDKAIDEIEKVKREASKEISKLLKEEKE

Whole data set: some 1,800 sequences, median “median log2 fold change of GCK-ALFA target abundance (FLAG IP / Myc IP barcode read proportion)” near 0.14, cut for the lowest 2% near -0.84. This is one part of the list.

This assay has as its target T1, TRAF2, Q12933.
T1 chain: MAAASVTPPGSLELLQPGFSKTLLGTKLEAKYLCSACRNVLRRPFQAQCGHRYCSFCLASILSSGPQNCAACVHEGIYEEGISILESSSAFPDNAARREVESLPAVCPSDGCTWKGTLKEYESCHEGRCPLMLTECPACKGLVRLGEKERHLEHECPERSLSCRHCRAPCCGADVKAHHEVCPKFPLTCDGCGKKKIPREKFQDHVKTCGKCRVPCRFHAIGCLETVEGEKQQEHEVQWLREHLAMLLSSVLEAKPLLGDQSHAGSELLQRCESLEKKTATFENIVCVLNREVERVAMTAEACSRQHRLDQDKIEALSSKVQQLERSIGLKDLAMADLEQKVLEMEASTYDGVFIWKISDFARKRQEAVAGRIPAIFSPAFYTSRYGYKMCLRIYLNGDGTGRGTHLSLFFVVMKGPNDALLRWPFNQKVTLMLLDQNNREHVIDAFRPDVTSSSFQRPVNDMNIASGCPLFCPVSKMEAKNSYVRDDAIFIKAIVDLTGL
As to the kind of experiment: median log2 fold change of GCK-ALFA target abundance (FLAG IP / Myc IP barcode read proportion) (log2 ratio); each designed protein is fused to an ALFA-tag nanobody in HEK293 cells to bring the named protein to FLAG-tagged glucokinase (GCK); Myc marks an untargeted standard; higher = target protein stabilised (more abundant). The note with it: target protein: 3xFLAG-MCP-GCK-ALFA reporter; HEK293 landing pad (RPLP). In a few lines:
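Binders fused to an ALFA nanobody were recombined as a library into HEK293 landing-pad cells, which were induced with 2 μg mL^−1 doxycycline and then transfected to express a FLAG-tagged target and a Myc-tagged standard. After 48 h, circular RNA barcodes recovered by anti-FLAG and anti-Myc immunoprecipitation of lysates were reverse transcribed, amplified and sequenced. Each binder's target abundance is the median log2 ratio of FLAG to Myc barcode read proportions, from barcodes present at ≥10^−7 in both replicates, binders carrying ≥3 barcodes per replicate, a 10^−6 pseudocount and pooled replicates.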
On to B1, for which the “median log2 fold change” value is -0.315. B2: the “median log2 fold change” value stood at 0.0913. Turning to B3, the “median log2 fold change” value amounted to 0.117. Regarding B4, the “median log2 fold change” value is 0.283. To B5 belongs -0.0157. In the case of B6, the “median log2 fold change” value was 0.259. The same measure for B7: 0.208; for B8: -0.138; for B9: 0.111. For the molecule B10, the “median log2 fold change” value was 0.285. To B11 belongs 0.0677; to B12, -0.448; to B13, 0.361. For B14, the “median log2 fold change” value is 0.283. Turning to B15, the “median log2 fold change” value was 0.226. On to B16, for which the “median log2 fold change” value stood at 0.328.

B17: the “median log2 fold change” value was 0.237. The same measure for B18: -0.304.

In the case of B19, the “median log2 fold change” value came to 0.302. To B20 belongs 0.416; to B21, 0.193. The same measure for B22: -0.0117. To B23 belongs -0.5; to B24, 0.214; to B25, 0.121. On to B26, for which the “median log2 fold change” value is -0.0656. As for B27, the “median log2 fold change” value was -0.116. The same measure for B28: 0.0163.

As to B29, the “median log2 fold change” value turned out to be 0.249.

The values above are taken from the supplement of paper PMC12632987.
